# The list shows a part of the results. One pool of 16,384 single-stranded DNAs met each Rep nickase domain in vitro (3 µM enzyme, 1 h, 37 °C); shown is the middle of each 90-letter strand. Numbers give uncut DNA relative to the enzyme-free pool, as log2; more negative means more cut, near 0 not cut, and no call is made. Counts are relative to all reads; uncut strands gain when others are lost, and binding without cutting may add a little.
# System: T1, Rep nickase domain of tomato golden mosaic virus
# T1 sequence (residues 1-124, tag not shown): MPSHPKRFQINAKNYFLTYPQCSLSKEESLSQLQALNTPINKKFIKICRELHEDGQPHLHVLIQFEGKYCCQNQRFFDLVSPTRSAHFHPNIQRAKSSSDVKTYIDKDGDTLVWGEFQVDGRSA
# Test: uncleaved DNA left, log2 of reads against the no-enzyme library (log2 ratio); higher = less cleavage (more negative = more Rep cleavage of the k-mer); sequences stand for … in CTCGTCCG…ACCGGAGA
# Protocol: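 A pool of 90-nt single-stranded DNAs with seven random bases just before the constant AC of the nick site (name = the seven bases) was cut by 3 µM recombinant His6-SUMO-tagged Rep nickase domain (300 nM DNA, 50 mM HEPES pH 8.0, 50 mM NaCl, 1 mM MnCl2, 1 h, 37 °C, three replicates). Uncut DNA was amplified and sequenced.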
row,Sequence,uncleaved DNA left (log2)
1,ATAGCTG,0.065
2,CCTTCTT,-0.111
3,GTAACAT,0.0299
4,AAAATCG,0.119
5,AACACTG,0.0633
6,TGGAAAG,-0.0432
7,TGCGTGC,0.132
8,TGCCTCG,-0.219
9,GATTTTC,0.0179
10,CCTCGTA,-0.0298
11,GTGATCT,0.107
12,CTTTGAG,0.0287
13,GCTCGCT,0.153
14,CGTCCAA,-0.184
15,GTCTCAC,0.182
16,ATATGTT,-2.15
17,TCTGTTT,-0.0202
18,GGACCCC,0.14
19,GGTTATA,0.12
20,ACGCACT,-0.0511

row,Sequence,uncleaved DNA left (log2)
1,TTGCCGA,-0.243
2,GGCAACT,0.0829
3,CGCTACT,-0.111
4,CTGTCCG,0.0672
5,GCTATCT,0.0578
6,AACTAGT,0.00472
7,GATAACG,0.0666
8,GCAGAGG,0.0522
9,TCCCGCG,-0.111
10,GCCTGCG,-0.00433
11,CTTCCCC,-0.0913
12,TGGAAGA,-0.0239
13,TTATTTC,-0.149
14,AAAATGA,0.0774
15,GCTCGCC,-0.085
16,TACAGCC,-0.0166
17,TGATGCG,-0.0909
18,TATTGCC,-0.236
19,TGTAGAT,-0.0195
20,CGAGAAT,0.174
